Z-score data for 108 molecules are collected here from PubChem BioAssay AID488969 (Vanderbilt High Throughput Screening Facility, 2010).

In all, about 110,000 compounds were measured (“z-score”: median about -0.1, highest 2% from about 2 on). The list shows a part of the results. Calls of active or inactive are those of the source.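 How the source made its calls: active means z-score in the third read window above 3 or below -3; inactive means the rest.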

The target in this assay is Metabotropic glutamate receptor 8 (Rattus norvegicus) (UniProt P70579). Kind of assay: mGluR8 Gi/Go-coupled signaling modulation – cell-based, rat, thallium flux, HTS, primary screen (AID 488969). Conditions: HEK293 rat mGluR8, GIRK (G protein-gated inwardly rectifying potassium channel) thallium flux, FluoZin2; at 10 µM; stronger effect = higher value; submaximal glutamate (EC20) added with thallium.
Chain of UniProt P70579 (P70579 whole entry, looked up): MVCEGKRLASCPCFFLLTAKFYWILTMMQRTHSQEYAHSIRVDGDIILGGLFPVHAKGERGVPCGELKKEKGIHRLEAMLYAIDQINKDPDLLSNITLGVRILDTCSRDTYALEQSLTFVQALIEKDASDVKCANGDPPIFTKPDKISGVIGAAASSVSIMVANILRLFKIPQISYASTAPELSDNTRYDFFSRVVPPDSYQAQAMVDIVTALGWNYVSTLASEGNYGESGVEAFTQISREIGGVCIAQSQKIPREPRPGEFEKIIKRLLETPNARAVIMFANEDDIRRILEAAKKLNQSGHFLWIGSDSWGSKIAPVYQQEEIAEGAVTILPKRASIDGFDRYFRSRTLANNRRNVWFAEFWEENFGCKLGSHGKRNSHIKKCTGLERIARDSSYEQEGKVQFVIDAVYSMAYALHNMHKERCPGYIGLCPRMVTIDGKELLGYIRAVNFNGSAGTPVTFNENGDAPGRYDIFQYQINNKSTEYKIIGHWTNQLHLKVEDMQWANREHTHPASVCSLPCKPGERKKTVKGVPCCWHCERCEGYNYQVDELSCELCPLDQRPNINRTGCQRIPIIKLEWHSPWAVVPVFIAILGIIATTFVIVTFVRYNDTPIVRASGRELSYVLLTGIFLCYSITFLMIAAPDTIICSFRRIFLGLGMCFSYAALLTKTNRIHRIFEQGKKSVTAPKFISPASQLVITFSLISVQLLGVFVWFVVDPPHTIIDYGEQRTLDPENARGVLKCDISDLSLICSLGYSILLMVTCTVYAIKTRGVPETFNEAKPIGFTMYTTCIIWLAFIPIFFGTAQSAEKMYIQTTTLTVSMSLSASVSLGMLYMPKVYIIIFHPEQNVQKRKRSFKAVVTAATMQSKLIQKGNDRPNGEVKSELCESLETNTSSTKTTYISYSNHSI
With `O=C(CSc1nnc(C2CC2)n1Cc1ccccc1)N1CCN(S(=O)(=O)c2ccccc2)CC1`, the z-score is -0.767.

With `O=c1[nH]ncn1-c1cccc(C(F)(F)F)c1`, the z-score was -0.581.

Molecule `COC(=O)c1ccc(CSc2nnnn2-c2ccc(C)cc2C)o1` came in with a z-score of -0.565.

Consider `Cc1c(NS(=O)(=O)c2ccccc2)c(=O)n(-c2ccccc2)n1C`, for which the z-score was determined as 0.111.

`CCOC(=O)c1sc(=S)n(-c2ccc(Cl)cc2)c1SC` yielded a z-score of -0.0152.

In the case of `CC1CCCN(C(=O)CCCn2c(=S)[nH]c3ccccc3c2=O)C1` (stereo not drawn), the z-score was active: 4.5.

On to `O=C(NCCN1C(=O)S/C(=C/c2ccccc2)C1=O)C1CCCN1C(=O)c1cccs1` (stereo not drawn), for which the z-score came to 0.366.

Turning to `Cc1oc(C(C)(C)C)cc1C(=O)Nc1ccc(C(=O)O)cc1`, the z-score amounted to 0.688.

Molecule `COc1ccc(N(Cc2cc3ccccc3[nH]c2=O)C(=O)C2CCCO2)cc1` (stereo not drawn) returned a z-score of -0.0545.

As to `CC1(C)CC2CC(C)(CN2S(=O)(=O)c2ccc(N)cc2)C1` (stereo not drawn), the z-score was determined as 0.221.

On to `O=C(CCNC(=O)c1ccccc1)Nc1ccc(F)c(Cl)c1`, for which the z-score is -0.196.

For the molecule `Cn1c(Cn2cnc([N+](=O)[O-])n2)nnc1SCC(=O)Nc1cccc(Cl)c1`, the z-score was 0.0505.

As for `CC(=O)Nc1ccc(S(=O)(=O)N2CCN(C(=O)c3ccccc3F)CC2)cc1`, the z-score was 0.0333.

`Cc1cccc(C(=O)NC(=S)Nc2ccc(Cc3ccncc3)cc2)c1` yielded a z-score of 0.66.

The molecule `Cc1cccc2cc(CN(Cc3cccs3)Cc3nnnn3Cc3ccccc3)c(=O)[nH]c12` yielded a z-score of -0.746.

`CCCC12CN3CCN(CC(C3)/C1=N\NC(=O)c1ccccc1N)C2` yielded a z-score of -0.119.

Take `Nc1cc(Cl)ccc1C(=O)OCC(=O)NC1CCS(=O)(=O)C1` (stereo not drawn): the z-score is -0.00713.

`Cc1nc2sc(C(c3cccs3)N3CCC(C(N)=O)CC3)c(O)n2n1` (stereo not drawn) yielded a z-score of 0.0412.

Consider `COc1ccccc1-c1nnc(NC(=O)c2ccc3ncsc3c2)o1`, for which the z-score is -0.241.

For the molecule `O=C1CN(C(=O)COC(=O)c2ccccc2NCc2ccco2)c2ccccc2N1`, the z-score is -0.656.

Take `COc1ccc2nc(SCC(=O)N3CCN(c4ccccc4F)CC3)c(C#N)cc2c1`: the z-score amounted to 0.358.

Molecule `CC(C)NC(=O)c1n[nH]c(=O)c2ccccc12` came in with a z-score of 0.489.

`Cc1cccc(C(=O)NCc2nnc3c4ccccc4c(-c4ccccc4)nn23)c1` registered a z-score of -0.742.

In turn, `N/C(=N\OC(=O)c1ccc([N+](=O)[O-])cc1)c1cccnc1` registered a z-score of 0.198.

`CCC(CC)NC(=O)c1cc(OC)c(OC)cc1[N+](=O)[O-]` showed a z-score of -0.0685.

The molecule `O=C(NC(CO)c1ccccc1)c1ccco1` (stereo not drawn) showed a z-score of -0.0347.

As for `CCCCCCCCn1cc(C(C)=O)c(=O)[nH]c1=O`, the z-score stood at 0.136.

`Nn1c(SCC(=O)Nc2ccc(S(=O)(=O)N3CCCC3)cc2)nnc1C(F)(F)F` showed a z-score of 1.36.

As for `O=[N+]([O-])c1cc(C=Nc2ccc3ccccc3c2)ccc1Br`, the z-score was -0.142.

In turn, `CCC(Oc1ccccc1)C(=O)NCCOC` (stereo not drawn) showed a z-score of 0.0884.

In turn, `Cc1cc(NS(=O)(=O)c2ccc(N3C(=O)C4C5C=CC(C5)C4C3=O)cc2)nc(C)n1` (stereo not drawn) displayed a z-score of 0.143.

`Cc1ccc(C)c(N2CCN(C(=O)CCn3c(=S)[nH]c4cc5c(cc4c3=O)OCO5)CC2)c1`: the z-score was -0.145.

As for `O=C(CCc1nc2ccccc2s1)OCC(=O)c1ccccc1`, the z-score was -0.21.

Regarding `COc1ccccc1NC(=O)Cn1cnc2sc(C(=O)NCc3ccco3)c(C)c2c1=O`, the z-score was -0.254.

For the molecule `O=C(COc1ncnc2c(Cl)cc(Cl)cc12)N1CCN(S(=O)(=O)c2ccccc2)CC1`, the z-score was -0.496.

`CCCC(C)NC(=O)c1cc(Cl)ccc1OC` (stereo not drawn): the z-score is -0.422.

For `CCOC(=O)CC(NC(=O)c1cccs1)c1ccc(OCC)cc1` (stereo not drawn), the z-score is -0.563.

Turning to `Cc1ccc(N2C(=O)C3CC(c4ccccc4)=C4C5C=CC(C6C(=O)N(c7ccc(C)cc7)C(=O)C56)C4C3C2=O)cc1` (stereo not drawn), the z-score was -0.0459.

In turn, `CCN(CC)CCN1C(=O)C(O)=C(C(=O)c2sc(C)nc2C)C1c1cccnc1` (stereo not drawn) yielded a z-score of 0.718.

`COc1ccc(CN2CCCCC2C(=O)Nc2ccc(OC)c(OC)c2)cc1OC` (stereo not drawn) returned a z-score of -0.107.

On to `Cc1cccc(N(C(=O)c2csnn2)C(C(=O)NC(C)(C)C)c2cccs2)c1` (stereo not drawn), for which the z-score was -0.155.

Take `O=S(=O)(NCc1ccccn1)c1ccc2c(c1)OCCO2`: the z-score came to 0.456.

In turn, `O=C(CN1CCOCC1)N1CCc2ccccc2C(c2ccccc2)C1` (stereo not drawn) gave a z-score of -0.0141.

The molecule `C=CCCc1ccc(C#N)c(SCc2c(C(=O)OCC)c3cc(OC(C)=O)c(Br)cc3n2C)n1` returned a z-score of -0.0256.

Molecule `ClC(Br)=C(n1cnc2ccccc21)n1cnc2ccccc21` registered a z-score of -0.0289.

Consider `C=CCn1c(SCc2cc(C(=O)OC)c(C)o2)nnc1-c1ccncc1`, for which the z-score is -0.0722.

For the molecule `COC(=O)c1cc(C#N)c(Oc2ccc(OC)cc2)nc1C`, the z-score was -0.385.

Molecule `C=CCNC(=O)c1onc(CSc2cccc(OC)c2)c1C(=O)O` displayed a z-score of -0.0506.

For the molecule `CCc1ccc(NC(=O)c2cc(-c3ccc(OC)cc3)on2)cc1`, the z-score was -0.237.

As to `COc1ccc(OC)c(NC(=O)C2CCCNC2=O)c1` (stereo not drawn), the z-score was -0.395.

As to `Cc1ccc(NC(=O)Cc2nn(C)c(=O)c3ccccc23)cc1F`, the z-score is -0.587.

Take `O=C(NCN1C(=O)C2C3C=CC(C3)C2C1=O)Nc1ccccn1` (stereo not drawn): the z-score was determined as 0.599.

In turn, `Clc1ccc(-n2ncc3c(N4CCCC4)ncnc32)cc1` came in with a z-score of -0.394.

Molecule `Cc1c(NC(=O)c2c(NC(=O)CNC3CC3)sc3c2CCCC3)c(=O)n(-c2ccccc2)n1C` returned a z-score of -0.106.

`CCOC(=O)c1cc(-c2ccccc2)n(CCC(=O)O)c1C` gave a z-score of -0.15.

On to `CCOC(=O)N1CCC(NC(=O)CCc2nc(-c3ccc(C)cc3)no2)CC1`, for which the z-score came to 0.526.

In turn, `C=CCOc1c(CNc2ncn[nH]2)cccc1OCC` had a z-score of 0.764.

For the molecule `Cc1cc(O)c(C(C)C)cc1NC(=O)c1ccccc1Cl`, the z-score was -0.091.

Regarding `CCC(=O)NCCn1c(C)cc2ccccc21`, the z-score turned out to be 0.729.

`CCOC(=O)c1c(C)[nH]c(C(=O)COC(=O)/C=C/c2cccc(OC)c2OC)c1C` gave a z-score of -0.256.

Molecule `O=C(CN1CCCCC1)Nc1cccc([N+](=O)[O-])c1` showed a z-score of 0.328.

`Oc1ccccc1-c1cc(-c2ccco2)[nH]n1` came in with a z-score of -0.734.

In turn, `COc1ccc(C(=O)Nc2ccc(C)cc2C(=O)c2ccccc2)c(OC)c1` displayed a z-score of 0.218.

In turn, `O=C(NCCc1ccccn1)c1cc(C(=O)C2CCCCC2)c[nH]1` had a z-score of 0.0693.

`C(=N\n1cncn1)/c1ccc(N2CCOCC2)cc1` had a z-score of -0.119.

With `C/C(CC(=O)Nc1ccccc1-c1ccccc1)=N\NC(=O)COc1ccc(C)cc1Br`, the z-score worked out at 0.458.

`CC(=O)Nc1ccc(C(=O)N(C)C(C(=O)Nc2ccccc2)c2ccccn2)cc1` (stereo not drawn) came in with a z-score of 0.635.

Molecule `Cc1ccc(C(=O)NC(C)CCc2ccccc2)cc1[N+](=O)[O-]` (stereo not drawn) showed a z-score of -0.352.

With `Cc1oc(/C=N/NC(=O)CN(c2ccccc2Br)S(C)(=O)=O)cc1Br`, the z-score was -0.262.

With `Cc1c(C=NCCOCc2ccccc2)cnn1C`, the z-score was determined as 0.0147.

Consider `COCCNC(=O)c1ccc(-n2c(SCc3cc(F)ccc3F)nc3ccccc3c2=O)cc1`, for which the z-score was -0.0902.

On to `CCOC(=O)/C=c1\s/c(=C(\C#N)C(=O)NC)n(-c2ccccc2)c1=O`, for which the z-score was -0.21.

Molecule `COC(=O)Cn1cnc2c(nnn2-c2ccc(C)cc2)c1=O` registered a z-score of 0.00874.

`O=C(c1ccco1)N1CCN(S(=O)(=O)c2ccc3[nH]c(=O)oc3c2)CC1` came in with a z-score of 0.249.

Molecule `O=C(N/N=C/c1ccc(Cl)cc1Cl)C1CCN(c2ncc(C(F)(F)F)cc2Cl)CC1` yielded a z-score of -0.1.

For `COc1ccccc1-c1cn(S(=O)(=O)c2ccc(F)cc2)nc1N`, the z-score was -0.214.

In turn, `O=C(Cn1cc(/C=N/NC(=O)c2cccc(C(F)(F)F)c2)c2ccccc21)Nc1ccc(F)cc1` yielded a z-score of 1.03.

As to `Nn1c(SCC(=O)NC2CCCCC2)nnc1-c1ccc(Cl)cc1`, the z-score was -0.266.

`O=C(CCc1nc(-c2ccccc2F)no1)NCCN1CCOCC1`: the z-score was -0.538.

With `COCCCn1cnc2oc3nc4ccccc4nc3c2c1=O`, the z-score is -0.531.

In the case of `Cc1nnc2sc(-c3cccc(NC(=O)c4ccc(-c5cccc(Cl)c5)o4)c3)nn12`, the z-score is -0.956.

Molecule `CCn1c(SCC(=O)OC)nnc1C1CCCCC1` returned a z-score of -0.0306.

Take `CN(C)c1ccc(NC(=O)Oc2ccccc2)cc1`: the z-score is -0.0391.

`COC(=O)c1ccc(CSc2nnc(NC(=O)c3cc4c(s3)CCCC4)s2)cc1` yielded a z-score of 0.19.

Consider `CCCC(=O)Nc1cc(-c2nn(C)c(=O)c3ccccc23)ccc1N1CCCCC1`, for which the z-score was -1.86.

`Cc1cc(C)c(C(=O)CSc2nnc(-c3cccnc3)n2C)c(C)c1` had a z-score of 0.116.

As for `COc1ccc(Oc2ccccc2/C=N/O)cc1`, the z-score was -1.04.

Consider `O=C1CC(=O)C(n2cncn2)C(c2ccc(Cl)cc2Cl)C1` (stereo not drawn), for which the z-score is -0.101.

The molecule `Cc1sc(NC(=O)c2ccccc2)c(C(c2ccc(Cl)cc2)N2CCN(CCO)CC2)c1C` (stereo not drawn) came in with a z-score of -0.00152.

For the molecule `Cc1cc(C)cc(NCc2cc(=O)oc3cc(-c4ccccc4)c(O)cc23)c1`, the z-score is -0.0758.

Molecule `COc1ccc(C(=O)NC2(C(F)(F)F)C(=O)N(Cc3ccco3)C3=C2C(=O)CC(C)(C)C3)cc1OC` (stereo not drawn) had a z-score of -0.0742.

`C=CCC(=O)OCC(=O)Nc1ccc(Cl)cn1` showed a z-score of -0.0749.

`COc1ccccc1OCCn1c(CO)nc2ccccc21` showed a z-score of 0.573.

With `COc1ccc2c(=O)c3c(=O)n(Cc4ccco4)c(-c4ccccc4)nc3oc2c1`, the z-score was -0.281.

`CC(=O)Nc1ccc(Nc2ncc([N+](=O)[O-])c(Nc3ccc(NC(C)=O)cc3)n2)cc1` gave a z-score of -0.506.

In turn, `Cc1ccc(N)c(C(O)(C(F)(F)F)C(F)(F)F)c1` returned a z-score of -0.164.

Molecule `COc1cccc(C(=O)N/N=C(/CCC(=O)O)c2ccccc2)c1` came in with a z-score of -0.189.

Take `COCCNC(=O)CN(C(=O)CCC(=O)Nc1cc(C)on1)c1cccc(C)c1C`: the z-score is -0.171.

`CCC(CC)NC(=O)c1ccc2c(c1)OCCO2` returned a z-score of 0.0376.

`Cc1cccnc1NC(=O)Cn1nc(-c2ccccc2)oc1=S`: the z-score was -0.605.

`O=C(CCNS(=O)(=O)c1cccs1)NCc1ccco1` gave a z-score of -1.18.

`CCOC(=O)/C(C#N)=C/c1ccc(OC)c(OC)c1` gave a z-score of -0.112.

`CCCNC(=O)N1CCN(S(=O)(=O)c2ccc(C)c(C)c2)CC1` came in with a z-score of -0.316.

On to `Cc1nc2ccc(-c3nc4cc(N)ccc4o3)cc2[nH]1`, for which the z-score amounted to 0.679.

The molecule `Cc1csc(SCC(=O)Nc2cccc(S(=O)(=O)N3CCCC3)c2)n1` yielded a z-score of 0.0422.

In turn, `Fc1ccc(C(c2nnnn2C2CCCC2)N2CCc3ccccc32)cc1` (stereo not drawn) returned a z-score of -0.697.

In turn, `Cc1c(Nc2cc(=O)oc3ccccc23)c(=O)n(-c2ccccc2)n1C` yielded a z-score of -0.281.

Consider `COC(=O)c1[nH]c2ccc(C)cc2c1NC(=O)CCN1CCN(Cc2ccc3c(c2)OCO3)CC1`, for which the z-score is active: 9.23.
